Reference: the supplement of paper PMC11417369
The list shows a part of the results.

test system: PfHDP1 homeodomain (GST-tagged); assay: gcPBM binding intensity (ln(normalized median fluorescence intensity)); higher = stronger DNA binding
How it was run: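 Binding intensity values are the highest Masliner-normalised natural-log median intensity among replicate spots of either probe orientation. The binding step lasted 1 h in 1× PBS with 1% milk, 0.2 mg/ml BSA, 0.5% salmon testes DNA and 0.03% Triton X-100, using GST-tagged P. falciparum DNA-binding domains expressed in E. coli on an Agilent 4 × 180k array of primer-extended double-stranded 36-bp intergenic genomic probes plus negative controls. Alexa488 anti-GST antibody and a 488 nm scan detected bound protein.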

Sequence	gcPBM binding intensity (ln)
TTTCTTAAACCGTACAGTACACACCTTTATAATGTT [XGTACX_site434]	6.94
TAAGCGTTTTTTAAAACACACATAAGAACTAAATGA [CACACA_site1670]	6.41
TATTTTCCATGAGGTAGTACACATTAAAAAATCGTT [XGTACX_site6887]	6.37
AAGGTTTTGGGTTTTAATTAATTTAATATGATTATA [XGTACX_negctrl_site147]	6.56
TAATATTAAAAAGAGACACACAAAAATATTAAAAAA [CACACA_site3120]	6.71
TTACACCTTAGGATCTGTACAAATATATGACAAATC [XGTACX_site4333]	6.34
ATATTAAATATATACAGTACACATTACAATACAATA [XGTACX_site3221]	6.65
CTTTGTAGTTGGTCCACACACATATCTGGAAGAATA [CACACA_site4834]	6.36
TTTCAACTTTTGTCATGTACACATAATTTTATTGCA [XGTACX_site6701]	6.87
ATTTATTTATCAAATATTATCTTAAAAAAAAAAGAA [CACACA_negctrl_site1345]	6.28
TGTATAACCATAAATTGTACAGAAAAAAGTATAAAA [XGTACX_site1493]	6.33
ATGTGTATATGTTAATGTACAAATTTTGAAAATGCC [XGTACX_site2685]	7.02
TTAAAAAATATATACGTTGATATAATACAACTTGAC [CACACA_negctrl_site1551]	6.28
TATATATGCATTAAAGTGTTTTTTTTTTTTTTTTTT [CACACA_negctrl_site1353]	6.63
ATTTTTTTTTTTTATGGTACACACACGCGTATGGTT [XGTACX_site3888]	6.52
AACAAAAGAAAAAAATATATATATTCGTCCTATTTT [CACACA_negctrl_site444]	6.22
CATCTGGTATCTAATAGTACATATATATAATATCTT [XGTACX_site2774]	6.46
ATGTATTACTTAAATATATGAAACATATTACTTTTA [CACACA_negctrl_site496]	5.97
TCATATTCCAAAAAAAAAAAAAAAAAAAAAAAAATA [CACACA_negctrl_site1293]	5.82
AATATATATATATTATGTACACATAGAAATATATTA [XGTACX_site3874]	6.44
CTTTCAAAATTATTTATAGTATCTCATATTTTAGTA [XGTACX_negctrl_site72]	6.03
ATCCTTTATAAATAAGTGCATATAAAAAATAATATT [GTGCAC_site9759]	8.84

Sequence	gcPBM binding intensity (ln)
ACACATATGTATATATGTACTTATATATATATATAT [XGTACX_site8632]	9.2
TTTATTAATAAAAAGGTGCAATCAGGAAAAATTATC [GTGCAC_site9626]	8.47
ATAATAAATTCTACGCGTACAAAACCATGAACATTA [XGTACX_site7505]	6.52
TTTTAGCTATTTTAATATAATGAAGCAAAAAATAAA [TGCATGCA_negctrl_site576]	6.52
ACCTACATACATATGTGTACTTATTTGTATTCACTG [XGTACX_site7124]	6.94
ATAATATATGAAAAAACGATTTTTTCATTTTAAATA [XGTACX_negctrl_site146]	6.35
TTTATAAACAAATGAACACACAAACATATTTATATA [CACACA_site7478]	6.67
CACACGTAAAAGTATAATATAAAAAAGGTATACACT [CACACA_negctrl_site127]	6.56
TATTTAAAGATATATACACACATTTGATATTATTAT [CACACA_site6509]	6.54
CATACATACAAACACACACACATATAAATACATACA [CACACA_site4625]	6.85
AAAAAAAAAAAAAAAACACACATATCTGTATTTATA [CACACA_site5760]	6.67
ACATTGTTGGTGTTAGTGCATTGGTAAATATTATAT	8.23
ATAGTATATCAAAATTTGTAAATCATTCTCAATAAA [CACACA_negctrl_site430]	5.94
AAAAAAAAAATTTTCGTGCACATAAGAAAATTTAAA [GTGCAC_site9788]	9.87
TATATATTATATATTTGTACATATATATAAAAACTT [XGTACX_site449]	6.54
CCTTCCTTGAATTTTACATGCAAAAAATTATAAAAC [TGCATGCA_site663]	6.88
TTTTTTCAATATTATATCCAAAAATATTTGTAAATA [TGCATGCA_negctrl_site596]	5.71
TTATTAAAATATACATTTGAAAGTAATCTTATTTAA [XGTACX_negctrl_site431]	6.11
TATAAAAAAATAATAAAATAATAAAATATATAAATA [TGCATGCA_negctrl_site394]	6.28
ATTCTATTATCCTTTGCACACAAAATAAATGAAAAA [CACACA_site3030]	9.63
TTTTAAAAGGTAAAATGTACATATATAATATATACA [XGTACX_site1222]	6.22
TATTTTACATAAAAGAAAAAAAAAAAAAAAAAAAAA [CACACA_negctrl_site1460]	6.13

Sequence	gcPBM binding intensity (ln)
ATATTGAAAATTTGAAGTACATCTAAATATATTATT [XGTACX_site7817]	6.24
TTTATAATAAAAAATACATGCAGTTATATATAATAA [TGCATGCA_site654]	6.75
ATAATGTGTTTGGTATTCTTGATAGATAGTTTTGTG [CACACA_negctrl_site68]	6.66
ATCCGTGTCTGAAATACACACATGACAATGTGAATG [CACACA_site6556]	6.45
TATATATAAATAAACACACACAAATATAATAAAAAA [CACACA_site3526]	6.99
TATTTAAATACTGACGCATGCATAAGGAGTAATAGT [TGCATGCA_site465]	7.62
AAACATTTATGAAGGTGTACAAAAATGAATTAAAAA [XGTACX_site7035]	6.55
TTTTGTTTAGTGTATTGTACAATATATCTTTATTTT [XGTACX_site5163]	6.52
AGTCCTTACACATATATTAAATATGTGTATATATAT [XGTACX_negctrl_site336]	7.17
TATTAATACGGACACACACACACACTAGATAAAATA [CACACA_site4295]	7.02
AAAAAAAAAAAAAAAAGTACATATATATATATAATT [XGTACX_site4437]	6.1
TAATACTTAGAGAAAAGTACGTATGAACTTATGTAA [XGTACX_site5504]	6.24
TTTTTTTTTTTTTTTTGTACTTATAAAATAACATGT [XGTACX_site134]	6.18
TTTTAAAGCATATCATATAAAGAACATGACATAGGA [CACACA_negctrl_site630]	6.27
AACATTTTTAAATATATAAAAATATATATATATATA [XGTACX_negctrl_site551]	9
TTATATTTATGATACACACACGTATATTCACATACA [CACACA_site6354]	6.81
GTATGTTTAATTTTAGTGCAATTATAAATATTTTAA [GTGCAC_site9531]	9.52
AAGAAAATAAAATAAAAAAAAAAATAAAAAAAATAA [TGCATGCA_negctrl_site516]	6.18
TCAATAGTTACTAGTACATGCAAAAATAAACCTATA [TGCATGCA_site85]	6.88
CAAATATATATGTTCACACATATAATTATTGTGAAA [CACACA_site4190]	6.4
TTGCCATTAATTTATACACACACATTTTAATTTTTT [CACACA_site8150]	6.97
TTGTCATTTATAAAATGTACGTGTGTATATATTTAA [XGTACX_site5000]	6.78

Sequence	gcPBM binding intensity (ln)
TACATTTTTATTTTTACACACATATATATATATATA [CACACA_site1021]	9.47
CTATTAAAAAAATTATGTACACAACGTCTCTATATA [XGTACX_site4813]	6.66
TTAAGTATTTTACGTACACACTTATAAATGTACAGG [CACACA_site6012]	6.39
AAGTATTATTATAAGACACACATGTATATAAGTATA [CACACA_site1479]	6.53
TATAATATATTTATATGTACTTATTTATTTATATAT [XGTACX_site6519]	6.43
GAGTTTATTCTTTTTATACACACCTTATTTGATTAA [CACACA_site735]	6.85
TATTATTTTATGAGACATAAAAAAAAAAAAAAAAAA [CACACA_negctrl_site1534]	6.17
ATATATATATATATAGTGCATAATGTTTTAATAGAT	9.73
AAATTGTCTGCATATAGTACATAAATATATTAATAT [XGTACX_site4557]	6.55
TCTTTATATATATATATATGTGTGAATGTTAAGTAT [XGTACX_negctrl_site135]	6.97
ATTTTTTTTTTTTCCTTACACACATATTTCATTTTA [CACACA_site748]	6.87
AGTAAAAGAAAGCACACACACATGTATATATGTATG [CACACA_site3858]	6.47
CAATATAAAAAACACACGCACACAAAAAAAAAAAAA [CACACA_site3521]	6.56
GTAATATTATATAGTTGTACTTTTTTTTTATTATAT [XGTACX_site483]	6.76
ATATATAAAATATATTGTACATTAACATATATATTT [XGTACX_site2055]	6.34
ATATATAAATAAATAGTGCATTTTAATATTTAACGT	8.86
AAACTTGACGGACACACACACACATATATAAAAAAA [CACACA_site4577]	6.87
TAATCCATAAGAAGCACACACATATAAATATATTTT [CACACA_site6774]	6.63
TTTAAATATTTTAACACACTCATATTTAGGTTACAA [CACACA_site5685]	6.5
TCCATATATATTATGTGTACATATTATATATATAAA [XGTACX_site7525]	6.46
TTTACATATTTATATACACACTTTTGCGTGTCTGGT [CACACA_site4750]	6.6
